Reference: the RNAGym collection of RNA variant scans (doi:10.1073/pnas.2313332121)
This sample is rich in variants without activity.

B1: TPR 5TU (parent)
chain: GGAUCUUCUCGAUCUAACAAAAAAGACAAAUCUGCCACAAAGCUUGAGAGCAUCUUCGGAUGCAGAGGCGGCAGCCUUCGGUGGCGCGAUAGCGCCAACGUUCUCAACUAUGACACGCAAAACGCGUGCUCCGUUGAAUGGAGUUUAUCAUG

Variants of: B1
Assay: polymerase ribozyme fitness, log enrichment relative to wild type (log ratio); higher = more active; in vitro selection for triplet polymerase activity
Outline: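 Only genotypes with ≥10 input reads and ≥1 read per output were kept after Illumina sequencing of input and output libraries. These libraries were PCR-built, transcribed mutants of each subunit of a heterodimeric triplet polymerase ribozyme, each put through one triplicate in vitro selection round with frozen incubation at −7 °C, gel excision of extended constructs, streptavidin-bead capture and RT-PCR. Fitness is a logarithmic ratio of genotype enrichment to wild-type enrichment, from inverse-variance-weighted replicate averages, with the logarithm in base 2.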

G50C G81C C93G C95U A110C and G50A C54U C76A G83C A113C cannot be ordered by “polymerase ribozyme fitness (log ratio)” value: no more than -4.2 for the first, no more than -4.2 for the second.

Compared with G50A C54G G86C A97U C108U, G50U is higher in “polymerase ribozyme fitness (log ratio)” value: no more than -4.2 for the first, 0.257 for the second.

Compared with G50A, G50C is lower in “polymerase ribozyme fitness (log ratio)” value: -1.02 for the first, -2.52 for the second.

G50C C51U C87U G152U and G50A G84A U139A cannot be ordered by “polymerase ribozyme fitness (log ratio)” value: no more than -4.2 for the first, no more than -4.2 for the second.

Going from G50U G74A C93A to G50A C118U A122G A137G A147U, the “polymerase ribozyme fitness (log ratio)” value rises from no more than -4.2 to -2.53.

G50A C95A C108U G143A and G50A G71U A98U G152C cannot be ordered by “polymerase ribozyme fitness (log ratio)” value: no more than -4.2 for the first, no more than -4.2 for the second.

G50A U77A G88A and G50C G84U U148A cannot be ordered by “polymerase ribozyme fitness (log ratio)” value: no more than -4.2 for the first, no more than -4.2 for the second.

Compared with G50C U102G U127C U135C, G50U U55A G71U is higher in “polymerase ribozyme fitness (log ratio)” value: no more than -4.2 for the first, -3.35 for the second.

Going from G50C C54A A91U to G50U U144G U145A, the “polymerase ribozyme fitness (log ratio)” value rises from no more than -4.2 to 0.245.

First: G50C G117A
Second: G50U G80A G86U C125U C132U A137G
The “polymerase ribozyme fitness (log ratio)” value of the first is higher: -2.37 for the first, no more than -4.2 for the second.

G50U U56A A107G and G50A C87G cannot be ordered by “polymerase ribozyme fitness (log ratio)” value: no more than -4.2 for the first, no more than -4.2 for the second.

G50A A52U A66C C85A and G50A C96G C118U U130C C149G cannot be ordered by “polymerase ribozyme fitness (log ratio)” value: no more than -4.2 for the first, no more than -4.2 for the second.

C51A A64U C85A G117A U151A and G50C U56A G62C C72U C95U A142C cannot be ordered by “polymerase ribozyme fitness (log ratio)” value: no more than -4.2 for the first, no more than -4.2 for the second.

A49U U56A U144G U148G and G50A C51U U55A C76A C105U C108G cannot be ordered by “polymerase ribozyme fitness (log ratio)” value: no more than -4.2 for the first, no more than -4.2 for the second.

First: G50A C95G
Second: G50A C96U G141U
The “polymerase ribozyme fitness (log ratio)” value of the first is lower: -3.01 for the first, -0.125 for the second.

G50C C51G A52U C76U G84U C105U C114U G133A and G50A G133U cannot be ordered by “polymerase ribozyme fitness (log ratio)” value: no more than -4.2 for the first, no more than -4.2 for the second.

Going from G50C G71A C95U G117C G143A to G50U C87U G92A, the “polymerase ribozyme fitness (log ratio)” value rises from no more than -4.2 to 0.244.

G50C U56A U90C C95U U104C U109C C114U C118U C129U and G50C G67A U90G A142G cannot be ordered by “polymerase ribozyme fitness (log ratio)” value: no more than -4.2 for the first, no more than -4.2 for the second.

G50C C54U C87A U135C U144C and G50C C99G U148A cannot be ordered by “polymerase ribozyme fitness (log ratio)” value: no more than -4.2 for the first, no more than -4.2 for the second.

G50C C96U U134A and G50A U109A A115G G143A cannot be ordered by “polymerase ribozyme fitness (log ratio)” value: no more than -4.2 for the first, no more than -4.2 for the second.

G50C A52U G143A and G50A G70A C75A cannot be ordered by “polymerase ribozyme fitness (log ratio)” value: no more than -4.2 for the first, no more than -4.2 for the second.

First: G50A G86A
Second: G50C C75A C87G A150G
The “polymerase ribozyme fitness (log ratio)” value of the first is higher: -3.01 for the first, no more than -4.2 for the second.

G50C C51U C85A C118G C129U and G50A A64C G92A cannot be ordered by “polymerase ribozyme fitness (log ratio)” value: no more than -4.2 for the first, no more than -4.2 for the second.

G50U U56G A73U C108A A122C G141C and G50U A91C A115G cannot be ordered by “polymerase ribozyme fitness (log ratio)” value: no more than -4.2 for the first, no more than -4.2 for the second.

G50A U56A C76A A91C A115C A137G A138G and G50A U82C G86U G112C cannot be ordered by “polymerase ribozyme fitness (log ratio)” value: no more than -4.2 for the first, no more than -4.2 for the second.

G50A C57G A60C A91U C93G C114A and G50A C93U A107C G152U cannot be ordered by “polymerase ribozyme fitness (log ratio)” value: no more than -4.2 for the first, no more than -4.2 for the second.

G50C G83U and G50C G83A are within 0.2 log units of each other in “polymerase ribozyme fitness (log ratio)” value: -3.77 for the first, -3.65 for the second.

G50C U61A G88A C99G U135C U146C and G50C G71C cannot be ordered by “polymerase ribozyme fitness (log ratio)” value: no more than -4.2 for the first, no more than -4.2 for the second.

C51A A64U C96U C99A A107G A121U G128A and G50C A64C U82G C87G A106U A122C cannot be ordered by “polymerase ribozyme fitness (log ratio)” value: no more than -4.2 for the first, no more than -4.2 for the second.

G50A G100A and G50A A73U C96G A98U A120U A137G cannot be ordered by “polymerase ribozyme fitness (log ratio)” value: no more than -4.2 for the first, no more than -4.2 for the second.

G50U C95U C96U A115G and G50A C69G C85U U90C G100C cannot be ordered by “polymerase ribozyme fitness (log ratio)” value: no more than -4.2 for the first, no more than -4.2 for the second.

G50U A60U G86U A106U and A49U G84U A97C G126C A138G A150G cannot be ordered by “polymerase ribozyme fitness (log ratio)” value: no more than -4.2 for the first, no more than -4.2 for the second.

Going from G50A G84A A142C to G50U A60U C76A G80U U101G A107U, the “polymerase ribozyme fitness (log ratio)” value falls from -3.15 to no more than -4.2.

Compared with G50A G67U C95U, G50A G128U is higher in “polymerase ribozyme fitness (log ratio)” value: no more than -4.2 for the first, -3.21 for the second.

Going from G50U C87U to G50C C95U U146G, the “polymerase ribozyme fitness (log ratio)” value falls from -1.51 to -3.64.

First: G50C U56A A73G C125A
Second: G50U U78C U139G
The “polymerase ribozyme fitness (log ratio)” value of the first is lower: -4.1 for the first, -3.06 for the second.

G50C C87G C99A and G50A C79U G94U C108U C132U cannot be ordered by “polymerase ribozyme fitness (log ratio)” value: no more than -4.2 for the first, no more than -4.2 for the second.

First: G50U A66C G71A G84U G136C U146G
Second: G50A A120G A122U A150U
The “polymerase ribozyme fitness (log ratio)” value of the first is lower: no more than -4.2 for the first, -2.03 for the second.

G50C G59A A107C U134A G140U and A49U G58C A66G G80U C85A C87A C108G G128U C149U cannot be ordered by “polymerase ribozyme fitness (log ratio)” value: no more than -4.2 for the first, no more than -4.2 for the second.

G50C C85A C93A and G50U G83A C95G A107G cannot be ordered by “polymerase ribozyme fitness (log ratio)” value: no more than -4.2 for the first, no more than -4.2 for the second.

First: G50C G65C G67U C85A G86A A91C U134G G143U
Second: G50C C76U
The “polymerase ribozyme fitness (log ratio)” value of the first is lower: no more than -4.2 for the first, -1.88 for the second.

G50C G74U C87U and G50C G68A C72G C76U C93U C131U G141C cannot be ordered by “polymerase ribozyme fitness (log ratio)” value: no more than -4.2 for the first, no more than -4.2 for the second.
